Data published in paper PMC4336329 (PLoS ONE, 2015).
Out of some 310,000 compounds screened, about 14,000 (4.5%) showed an effect of 50% or more. Effects have a minus sign here. The list shows a part of the results.

What follows are molecules tested against human ether-à-go-go-related gene (hERG) potassium channel (human, UniProt Q12809) (assay: primary screen, population patch clamp on CHO cells stably expressing hERG).
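Note: peak tail current of the secondary pulse compared with the same well before compound.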

Sequence of human ether-à-go-go-related gene (hERG) potassium channel (Q12809 whole entry, looked up): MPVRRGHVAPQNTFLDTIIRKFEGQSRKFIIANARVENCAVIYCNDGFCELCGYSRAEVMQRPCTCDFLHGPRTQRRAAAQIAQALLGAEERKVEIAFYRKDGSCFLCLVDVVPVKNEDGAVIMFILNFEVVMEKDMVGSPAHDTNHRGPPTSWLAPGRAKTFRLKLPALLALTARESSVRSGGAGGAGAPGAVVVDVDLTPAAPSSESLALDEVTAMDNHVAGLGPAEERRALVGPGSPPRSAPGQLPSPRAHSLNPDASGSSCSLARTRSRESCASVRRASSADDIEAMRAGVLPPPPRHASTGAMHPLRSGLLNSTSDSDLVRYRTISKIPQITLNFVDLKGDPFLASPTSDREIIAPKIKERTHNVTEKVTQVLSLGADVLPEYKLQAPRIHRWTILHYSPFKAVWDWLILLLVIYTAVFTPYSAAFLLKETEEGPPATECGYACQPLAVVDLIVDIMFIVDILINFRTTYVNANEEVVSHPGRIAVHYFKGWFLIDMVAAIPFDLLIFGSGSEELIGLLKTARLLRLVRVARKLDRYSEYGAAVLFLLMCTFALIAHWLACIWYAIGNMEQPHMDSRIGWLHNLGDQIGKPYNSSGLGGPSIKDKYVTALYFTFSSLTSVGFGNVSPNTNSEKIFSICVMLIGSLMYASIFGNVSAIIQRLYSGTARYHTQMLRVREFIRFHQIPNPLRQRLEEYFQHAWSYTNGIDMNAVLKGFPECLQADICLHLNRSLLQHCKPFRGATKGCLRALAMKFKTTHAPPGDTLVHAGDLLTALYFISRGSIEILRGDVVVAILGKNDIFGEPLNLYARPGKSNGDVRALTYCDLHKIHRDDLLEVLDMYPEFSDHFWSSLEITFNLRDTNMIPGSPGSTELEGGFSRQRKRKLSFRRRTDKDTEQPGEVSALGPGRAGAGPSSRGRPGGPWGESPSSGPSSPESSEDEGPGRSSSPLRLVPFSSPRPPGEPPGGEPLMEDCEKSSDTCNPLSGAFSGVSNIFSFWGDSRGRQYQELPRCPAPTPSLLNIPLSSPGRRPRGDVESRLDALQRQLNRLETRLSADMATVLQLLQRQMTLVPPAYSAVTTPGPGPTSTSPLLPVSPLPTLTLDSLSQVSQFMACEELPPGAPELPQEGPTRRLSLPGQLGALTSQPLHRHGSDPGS

Question: Which “hERG current change (%, negative = inhibition) at 10uM” value does the source give for CCOC(=O)N1CCN(CCC(=O)Nc2ccc(C)c(Br)c2)CC1.Cl here?
Answer: -49.8%

Question: O=C(Nc1cccc2ccccc12)C1CCCC1 was tested. Which “hERG current change (%, negative = inhibition) at 10uM” value did it give?
Answer: 5.2%

Question: O=[N+]([O-])c1ccc(CSc2ccccn2)cc1 was tested. Which “hERG current change (%, negative = inhibition) at 10uM” value did it give?
Answer: -21%

Question: With Cc1ccc2[nH]cc(C(=O)CN3CCN(c4ccccn4)CC3)c2c1 as the molecule, how does the “hERG current change (%, negative = inhibition) at 10uM” value read?
Answer: -37.4%

Question: For CCNCC(=O)N1c2ccccc2CCc2ccc(NC(=O)OCC)cc21, which “hERG current change (%, negative = inhibition) at 10uM” value is on record?
Answer: -12%

Question: With COc1ccc(C(=O)NCCS(=O)(=O)N2CCOCC2)cc1 as the molecule, how does the “hERG current change (%, negative = inhibition) at 10uM” value read?
Answer: 10.8%

Question: Which “hERG current change (%, negative = inhibition) at 10uM” value does the source give for Cc1nc(C(N)=O)nc2ccccc12 here?
Answer: 5.71%

Question: O=C(CSc1ncn[nH]1)N/N=C/c1ccc(Br)cc1 was tested. Which “hERG current change (%, negative = inhibition) at 10uM” value did it give?
Answer: -11.4%

Question: With CC1=C(C#N)c2nc(N)c(C#N)c(C)c2/C1=C\c1ccc(C)cc1 as the molecule, how does the “hERG current change (%, negative = inhibition) at 10uM” value read?
Answer: 3.8%

Question: For CCOC(=O)C(C)(C)n1nnc(-c2ccc([N+](=O)[O-])cc2)n1, which “hERG current change (%, negative = inhibition) at 10uM” value is on record?
Answer: -10.2%

Question: How did the “hERG current change (%, negative = inhibition) at 10uM” value turn out when COc1ccccc1Oc1nc2ccccn2c(=O)c1/C=C(\C#N)C(=O)Nc1c(C)n(C)n(-c2ccccc2)c1=O was run?
Answer: 11.1%

Question: Which “hERG current change (%, negative = inhibition) at 10uM” value does the source give for O=C(Cc1cccs1)NCc1ccncc1 here?
Answer: 8.62%

Question: With CCCN(CCC)CCNC(=O)C1CC(=O)N(c2ccc(OC)cc2)C1c1ccc(OC)cc1 (centres unmarked) as the molecule, how does the “hERG current change (%, negative = inhibition) at 10uM” value read?
Answer: -40.7%

Question: How did the “hERG current change (%, negative = inhibition) at 10uM” value turn out when NC(=O)c1c(NC(=O)CN2CCOCC2)sc2c1CCC2 was run?
Answer: -11.9%

Question: For Cc1ccsc1C(=O)N1CCCC(N(C)Cc2ccccc2)C1 (centres unmarked), which “hERG current change (%, negative = inhibition) at 10uM” value is on record?
Answer: -13.9%

Question: For C=CCn1c(=N)c(C(=O)NCCCOC)cc2c(=O)n3ccccc3nc21, which “hERG current change (%, negative = inhibition) at 10uM” value is on record?
Answer: -60.1%

Question: For CC(C)(C)c1nc(SCC(=O)N2CC(=O)Nc3ccccc32)c2ccccc2n1, which “hERG current change (%, negative = inhibition) at 10uM” value is on record?
Answer: 42.8%

Question: O=C(CCOc1ccccc1)N1CCN(S(=O)(=O)c2ccccc2F)CC1 was tested. Which “hERG current change (%, negative = inhibition) at 10uM” value did it give?
Answer: -4.19%

Question: How did the “hERG current change (%, negative = inhibition) at 10uM” value turn out when CCCCCOc1ccccc1C(=O)NCCCCCC(=O)O was run?
Answer: -42.3%

Question: For Nc1nc(CN2CCN(c3ccccn3)CC2)nc(Nc2ccc(Cl)cc2)n1, which “hERG current change (%, negative = inhibition) at 10uM” value is on record?
Answer: -74.8%

Question: COC(=O)c1ccccc1OCCOCCOc1cccc2cccnc12 was tested. Which “hERG current change (%, negative = inhibition) at 10uM” value did it give?
Answer: -40.6%

Question: Which “hERG current change (%, negative = inhibition) at 10uM” value does the source give for O=C(CN1CCCCCC1)OCCN=C1NS(=O)(=O)c2ccccc21 here?
Answer: 1.76%

Question: With CCc1ccc(NC(=O)C(C)Sc2nnc(CN3CCCC3)o2)cc1 (centres unmarked) as the molecule, how does the “hERG current change (%, negative = inhibition) at 10uM” value read?
Answer: 8.15%

Question: With O=C(N/N=C/C=C/c1ccccc1)c1cccc(Br)c1 as the molecule, how does the “hERG current change (%, negative = inhibition) at 10uM” value read?
Answer: 5.3%

Question: For COC(=O)Nc1ccc(S(=O)(=O)N2CCCC(C(=O)N3CCC(C)CC3)C2)cc1 (centres unmarked), which “hERG current change (%, negative = inhibition) at 10uM” value is on record?
Answer: -18.7%

Question: How did the “hERG current change (%, negative = inhibition) at 10uM” value turn out when COc1ccccc1CNc1ccc(N2CCOCC2)c(C(=O)O)c1 was run?
Answer: -8.53%

Question: CCn1c(CSc2nnc(-c3cccnc3)n2-c2ccccc2C)nc2cc(C(=O)O)ccc21.Cl was tested. Which “hERG current change (%, negative = inhibition) at 10uM” value did it give?
Answer: -13.8%

Question: CC(C)(C)c1ccc(C(=O)N2CCC(C(=O)NC3CCCCCC3)CC2)cc1 was tested. Which “hERG current change (%, negative = inhibition) at 10uM” value did it give?
Answer: -40%

Question: CCN(CC)CCN=Cc1c(O)n(Cc2ccccc2)c(=O)[nH]c1=O [14739636] was tested. Which “hERG current change (%, negative = inhibition) at 10uM” value did it give?
Answer: -31.3%

Question: With CCOCCCNC(=S)N1CCN(Cc2ccco2)CC1.O=C(O)C(=O)O as the molecule, how does the “hERG current change (%, negative = inhibition) at 10uM” value read?
Answer: 17.8%

Question: With Cc1ccc(C(=O)NC2(O)C(=O)c3ccccc3C2=O)cc1C as the molecule, how does the “hERG current change (%, negative = inhibition) at 10uM” value read?
Answer: 9.51%

Question: With COc1ccc(-n2c(CN3CCOCC3)nc3ccccc3c2=O)c(OC)c1 as the molecule, how does the “hERG current change (%, negative = inhibition) at 10uM” value read?
Answer: 22.9%

Question: How did the “hERG current change (%, negative = inhibition) at 10uM” value turn out when COc1ccccc1/C=C/C1=NC(=C\N(C)C)/C(=O)O1 was run?
Answer: -9.82%

Question: How did the “hERG current change (%, negative = inhibition) at 10uM” value turn out when COc1ccc(C2Nc3ccccc3C(=O)N2Cc2ccccc2)cc1Cn1nnc2ccccc21 (centres unmarked) was run?
Answer: -25.1%

Question: Cc1ccc(NC(=O)/C(=C\c2ccco2)NC(=O)c2ccco2)cc1 was tested. Which “hERG current change (%, negative = inhibition) at 10uM” value did it give?
Answer: -17.5%

Question: How did the “hERG current change (%, negative = inhibition) at 10uM” value turn out when Cc1cnc(NC(=O)c2ccc3c(c2)C(=O)N(Cc2ccco2)C3=O)s1 was run?
Answer: -10.9%

Question: With CN(C)/C=N/c1nc2nccc(-c3ccccn3)n2n1 as the molecule, how does the “hERG current change (%, negative = inhibition) at 10uM” value read?
Answer: 9.16%

Question: CCSc1nc(C)cc(C)c1S(=O)(=O)c1ccccc1C was tested. Which “hERG current change (%, negative = inhibition) at 10uM” value did it give?
Answer: 0.0832%

Question: For CCOC(=O)c1sc(=S)n(CC)c1NC(=O)C1CC1, which “hERG current change (%, negative = inhibition) at 10uM” value is on record?
Answer: 6.93%

Question: How did the “hERG current change (%, negative = inhibition) at 10uM” value turn out when COc1ccccc1CNC(=O)CCCOc1cc(=O)n(C)c2ccccc12 was run?
Answer: 4.57%

Question: Which “hERG current change (%, negative = inhibition) at 10uM” value does the source give for CCn1c(SCC(=O)Nc2cc(C)on2)nnc1-c1ccc(OC)cc1 here?
Answer: -12.6%

Question: How did the “hERG current change (%, negative = inhibition) at 10uM” value turn out when CCOC(=O)CC(NC(=O)c1cc2cccc(OC)c2oc1=O)c1ccc(OC)cc1 (centres unmarked) was run?
Answer: -5.76%

Question: How did the “hERG current change (%, negative = inhibition) at 10uM” value turn out when NS(=O)(=O)c1ccc(CNC(=S)NCc2ccc(F)cc2)cc1 was run?
Answer: 9.61%

Question: CC(C)c1cc(=O)oc2c3c4c(cc12)CCCN4CCC3 was tested. Which “hERG current change (%, negative = inhibition) at 10uM” value did it give?
Answer: -18%

Question: With Cl.OC(COCc1ccccc1)CN1CCCCC1 (centres unmarked) as the molecule, how does the “hERG current change (%, negative = inhibition) at 10uM” value read?
Answer: 6.73%

Question: For Cc1nc2ccc(N=NN(C)C)cc2[nH]1, which “hERG current change (%, negative = inhibition) at 10uM” value is on record?
Answer: 10.4%

Question: With O=C(CCn1c(=O)[nH]c2ccccc2c1=O)N1CCN(c2ccc(Cl)cc2)CC1 as the molecule, how does the “hERG current change (%, negative = inhibition) at 10uM” value read?
Answer: -13.1%

Question: COc1cc(C(=O)NCC(=O)OC(C)C(=O)Nc2ncc(Cl)cc2Cl)cc(OC)c1OC (centres unmarked) was tested. Which “hERG current change (%, negative = inhibition) at 10uM” value did it give?
Answer: 8.55%

Question: C=CCn1c(SCC(=O)c2ccc(OC)cc2)nnc1-c1ccc2c(c1)OCO2 was tested. Which “hERG current change (%, negative = inhibition) at 10uM” value did it give?
Answer: -16.9%

Question: For O=C(O)c1cccc(C(=O)O)c1, which “hERG current change (%, negative = inhibition) at 10uM” value is on record?
Answer: 6.31%

Question: With CC(=O)N1CCC(C(=O)OCc2ccc(Cl)cc2)(c2ccccc2)CC1 as the molecule, how does the “hERG current change (%, negative = inhibition) at 10uM” value read?
Answer: -10.1%

Question: With CN1CCN(C(=O)CSc2cc(=O)n(C)c3ccccc23)CC1 as the molecule, how does the “hERG current change (%, negative = inhibition) at 10uM” value read?
Answer: 8.32%

Question: For O=C(NC1CCCCC1)[C@@H]1CSC2c3ccccc3C(=O)N21 (some centres unmarked), which “hERG current change (%, negative = inhibition) at 10uM” value is on record?
Answer: 14.2%

Question: CCC1(c2ccccc2)C(=O)N(C)C(=O)N(C)C1=O was tested. Which “hERG current change (%, negative = inhibition) at 10uM” value did it give?
Answer: 10.6%

Question: With CC(C)c1ccc(/C=N/NC(=O)c2ccccc2Cl)cc1 as the molecule, how does the “hERG current change (%, negative = inhibition) at 10uM” value read?
Answer: 6.1%

Question: O=C(O)c1ccc(N2Cc3ccccc3C2)cc1O was tested. Which “hERG current change (%, negative = inhibition) at 10uM” value did it give?
Answer: 4.44%

Question: With COc1ccccc1NC(=O)c1cn(C)c(=O)c2cc(OC)c(OC)cc12 as the molecule, how does the “hERG current change (%, negative = inhibition) at 10uM” value read?
Answer: 4.1%

Question: For CC(C)(C)c1ccc(S(=O)(=O)CCc2ccccn2)cc1, which “hERG current change (%, negative = inhibition) at 10uM” value is on record?
Answer: -4.21%

Question: Which “hERG current change (%, negative = inhibition) at 10uM” value does the source give for N#CCCN(C(=O)COC(=O)CCc1nc2ccccc2c(=O)[nH]1)c1ccccc1F here?
Answer: -3.34%
